Measured values from PubChem BioAssay AID588689 (Southern Research Specialized Biocontainment Screening …, 2011).
Screen size: about 340,000 compounds; about 1,000 (0.29%) were called active. This list was built around the results that the source calls inconclusive (neither active nor inactive); the mix of calls is not that of the screen. Cut-off read from the data, not from the text of the source: inconclusive = inhibition above about 29% without an active follow-up result; inactive = below that.

biological target: Genome polyprotein (Dengue virus type 2 (strain 16681-PDK53)) (UniProt P29991); assay: Dengue-2 NS5 methyltransferase inhibitors, primary screen, biochemical, confirmation dose response (AID 588689); conditions: Dengue-2 NS5 methyltransferase capping enzyme assay, at 25 µM, hits give high values

SMILES | inhibition
CCN(CC)c1ccc(C(=C2C=CC(=[N+](CC)CC)C=C2)c2ccc(S(=O)(=O)O)cc2S(=O)(=O)[O-])cc1 | inactive: 1.48%
COCCCn1c(=O)/c(=C/c2ccccc2OC(C)C)s/c1=C(\C#N)C(=O)Nc1ccc(C(=O)O)cc1 | inconclusive: 34.6%
O=C1C=CC(=Nc2cccc3c2C(=O)c2ccccc2-3)O1 | inconclusive: 47.4%
CCOc1cc(/C=C2/C(=O)ON=C2C)cc(Br)c1O | inactive: -74.3%
CCCc1[nH][nH]c(=O)c1C(c1ccc(Br)cc1)C(C#N)C#N (stereo not given) | inactive: -1.4%
O=C1CCn2c1c(O)c1ccccc1c2=O | inconclusive: 54.4%
O=c1[nH]c(/C=C\c2cccc(Cl)c2)nc(O)c1[N+](=O)[O-] | inactive: 15.9%
O=C(O)c1ccc(Nc2nc3ccccc3nc2NS(=O)(=O)c2cccs2)cc1 | inactive: 19.7%
COc1cc(/C=C/c2[nH]c(=O)[nH]c(=O)c2[N+](=O)[O-])ccc1OCCC(C)C | inconclusive: 32.8%
CCCCN1C(=O)NC(NS(=O)(=O)c2ccc(N)cc2)(C(F)(F)F)C1=O (stereo not given) | inactive: 1.6%
O=C(NC(=S)Nc1cccc(S(=O)(=O)NC2=NCCC2)c1)c1cc(-c2ccco2)nc2ccccc12 | inconclusive: 116%
COc1cc(CO)cc(Br)c1OCC(=O)O | inactive: -12.1%
O=C1C(Br)=Cc2cccc3cccc1c23 | inconclusive: 43.5%
N=C1/C(=C\c2coc3ccc(O)cc3c2=O)C(=O)N=C2SC=CN12 | inconclusive: 70.5%
CC(C)Cn1c(=O)c(C(=O)Nc2ccncc2)c(O)c2ccccc21 | inconclusive: 65%
CCOc1ccc(C2C(C#N)=C(N)SC(N)=C2C#N)c(OCC)c1 | inconclusive: 164%
COc1ccc(Cn2c(O)c(/C=C3/C=CC=N3)c(=O)[nH]c2=O)cc1 | inconclusive: 32.6%
CSc1c(C#N)c(N)nc2sc(C(=O)c3ccccc3)c(N)c12 | inconclusive: 43.7%
COC(=O)C1CCN(c2nc3ccccc3nc2C(C#N)C(=O)NCCc2ccccc2)CC1 (stereo not given) | inconclusive: 92.4%
CC[n+]1c(/C=C/C=C/N(C(C)=O)c2ccccc2)sc2ccccc21 | inconclusive: 72.5%
O=C1C(SCCO)=C(SCCO)C(=O)c2ccccc21 | inactive: -3.66%
COc1cc2c(cc1N/C=C(\C#N)c1nc(-c3ccccc3)cs1)oc1ccccc12 | inconclusive: 96.8%
CCN(CC)C(=O)C1=C(C)N(CCC2=CCCCC2)C(=O)C(CC(=O)NCC2CCCCC2)C1 (stereo not given) | inactive: -0.57%
CCN(CC)c1ccc2cc(NC(=O)CCC(=O)O)c(=O)oc2c1 | inconclusive: 44.3%
CC(C)(C=O)C1=CC(=O)c2ccccc2C1=O | inconclusive: 72.9%
COc1ccc(NC(=O)CN2C(=O)/C(=C3\SC(=S)N(CCC(=O)O)C3=O)c3ccccc32)cc1 | inactive: 2.68%
CCN(CC)C(=O)C1CCCN(C(=O)Nc2ccccc2)C1 (stereo not given) | inactive: -0.8%
O=CN/C=C/c1cc(O)ccc1O | inconclusive: 47.9%

SMILES | inhibition
COc1cc(/C=C2\SC(=S)N(NS(=O)(=O)c3ccc(C)cc3)C2=O)ccc1O | inconclusive: 48.8%
COc1ccc(NC(=S)N(CCC(C)C)C(C)c2ccncc2)cc1 (stereo not given) | inactive: 0.57%
CCOC(=O)/C=c1/s/c(=C/c2ccc3cc(OC)ccc3c2)c(=O)n1CC(=O)NCC1CCCO1 (stereo not given) | inconclusive: 74.8%
CCN1C(=O)c2cccc3c(N)ccc(c23)C1=O | inconclusive: 172%
CC(=O)NN1C(=O)/C(=C2/Sc3ccccc3N2C)SC1=S | inconclusive: 42.2%
C[C@@H](C[C@@H](O)[C@H](O)C(C)(C)O)[C@@H]1CC[C@]2(C)C3=CC[C@H]4C(C)(C)C(=O)CC[C@]4(C)[C@H]3CC[C@@]12C | inactive: -3.21%
CC(=O)c1ccc2noc(-c3ccc(F)cc3)c2c1 | inconclusive: 51.1%
CCS(=O)(=O)N1N=C(c2cccc(NS(C)(=O)=O)c2)CC1c1ccccc1 (stereo not given) | inconclusive: 35.9%
O=c1oc(/C=C/c2ccco2)nc2sc3c(c12)CCC3 | inconclusive: 48.1%
O=c1cc(-c2ccccc2Cl)oc2c(NS(=O)(=O)c3cc(Cl)cc(Cl)c3O)ccc(O)c12 | inconclusive: 75.4%
C=CCn1c(SCC(=O)NC(=O)NCCC)nnc1C1CCCCC1 | inactive: 3.46%
CC(C)CNc1oc(-c2ccc(F)cc2)nc1C#N | inconclusive: 90.2%
CC(C)c1ccc(S(=O)(=O)c2nnn3c2nc(NCC2CCCO2)c2ccccc23)cc1 (stereo not given) | inactive: 0%
Cc1ccc(C)c(N2CCN(C(=O)c3cc4ccccn4n3)CC2)c1 | inconclusive: 107%
O=C(O)CCCCN1C(=O)/C(=C\c2ccc(OCc3ccccc3)c(OCc3ccccc3)c2)SC1=S | inactive: 6.5%
O=C(NCCCn1ccnc1)c1cccc(S(=O)(=O)Nc2ccccc2F)c1 | inactive: -2.82%
Cc1cc(C(=O)CS(=O)(=O)c2ccccc2)cc(C)c1O | inactive: -11.8%
Cc1ccc[n+](-c2nc([O-])sc2C=O)c1 | inconclusive: 117%
COc1cc(OC)c(OC)cc1/C=C1\Oc2cc(OCC(=O)N3Cc4ccccc4C[C@H]3C(=O)O)ccc2C1=O | inconclusive: 151%
O=C(c1cccc(S(=O)(=O)Nc2ccc(Br)cc2)c1)N1CCCC1 | inactive: -8.06%
Cc1cc2c(cc1C)NC(c1c(C)n(C)n(-c3ccccc3)c1=O)C1=C(CC(C)(C)CC1=O)N2 (stereo not given) | inconclusive: 59.1%
C/C(=N\Nc1nc2ccccc2[nH]1)c1ccccn1 | inconclusive: 41%
COc1ccc(OC)c(N2C(=O)CCCC2=O)c1 | inactive: -1.93%
Cc1sc(-c2c(C#N)c(N)nc3c2CCCCCC3)cc1[N+](=O)[O-] | inconclusive: 44.8%
CC(OC(=O)C1CC1C)C(=O)Nc1ncc(Cl)cc1Cl (stereo not given) | inactive: -5.81%
COc1cc2c3nnc(-c4ccc(F)cc4)c-3cn(Cc3cccc(F)c3)c2cc1OC | inconclusive: 134%
Cc1ccc(S(=O)(=O)c2cc3c(=O)n4ccccc4nc3n(CCc3ccccc3)c2=N)cc1 | inconclusive: 53%
